From PMC11446459
No constants are given. Whether binding was seen depends on the method and setting. Some entries that bind do so weakly or less than the wild type. Sequences can lack the tags named with a protein.

T1: A6, Q module subunit of complex I, Gal4 DNA-binding domain fusion (Arabidopsis) (UniProt Q9LHI0)
T1 sequence: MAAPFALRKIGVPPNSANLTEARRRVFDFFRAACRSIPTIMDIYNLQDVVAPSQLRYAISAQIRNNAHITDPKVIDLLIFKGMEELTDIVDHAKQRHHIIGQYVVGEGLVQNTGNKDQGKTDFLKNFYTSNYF

T2: CAL1, CA module subunit of complex I, Gal4 DNA-binding domain fusion (Arabidopsis) (UniProt Q9FMV1)
T2 sequence: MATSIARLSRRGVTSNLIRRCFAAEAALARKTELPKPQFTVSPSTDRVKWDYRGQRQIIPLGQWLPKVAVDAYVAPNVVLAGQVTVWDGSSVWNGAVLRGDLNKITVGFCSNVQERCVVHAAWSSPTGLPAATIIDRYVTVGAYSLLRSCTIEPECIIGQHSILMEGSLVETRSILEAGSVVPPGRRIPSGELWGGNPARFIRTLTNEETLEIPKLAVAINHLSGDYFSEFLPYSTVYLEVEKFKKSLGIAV

T3: CAL2, CA domain subunit of complex I, Gal4 DNA-binding domain fusion (Arabidopsis) (UniProt Q9SMN1)
T3 sequence: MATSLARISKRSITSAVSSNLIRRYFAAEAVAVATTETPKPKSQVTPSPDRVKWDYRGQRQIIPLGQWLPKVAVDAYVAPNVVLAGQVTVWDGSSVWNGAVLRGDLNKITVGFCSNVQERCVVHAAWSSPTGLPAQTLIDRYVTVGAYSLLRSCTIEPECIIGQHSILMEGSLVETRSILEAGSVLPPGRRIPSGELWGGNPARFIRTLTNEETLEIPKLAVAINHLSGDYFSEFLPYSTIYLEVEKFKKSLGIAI

T4: δ subunit of the F1 module of complex V, Gal4 DNA-binding domain fusion (Arabidopsis) (UniProt Q96252)
T4 sequence: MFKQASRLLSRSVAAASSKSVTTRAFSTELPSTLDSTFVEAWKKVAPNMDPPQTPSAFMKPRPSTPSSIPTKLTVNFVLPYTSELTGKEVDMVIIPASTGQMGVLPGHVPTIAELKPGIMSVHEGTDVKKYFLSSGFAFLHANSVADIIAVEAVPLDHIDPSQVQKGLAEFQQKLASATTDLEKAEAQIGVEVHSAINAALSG


Key:
Test in all cases: two-hybrid; Gal4 system (Matchmaker Gold); C1-FDX, ACP1, ACP2 in pGADT7, CI and CV subunits in pGBKT7; yeast AH109; growth on SD/-Trp/-Leu/-His/-Ade/+ x-α-gal for 4 days at 30°C
[1] = target: T1, A6, Q module subunit of complex I, Gal4 DNA-binding domain fusion (Arabidopsis)
[2] = target: T2, CAL1, CA module subunit of complex I, Gal4 DNA-binding domain fusion (Arabidopsis)
[3] = target: T3, CAL2, CA domain subunit of complex I, Gal4 DNA-binding domain fusion (Arabidopsis)
[4] = target: T4, δ subunit of the F1 module of complex V, Gal4 DNA-binding domain fusion (Arabidopsis)

binding [4] | Binder | binding [1] | binding [2] | binding [3]
 | ACP2, Gal4 activation domain fusion (protein, UniProt O80800 1-126) MAARGAMLRYLRVNVNPTIQNPRECVLPFSILLRRFSEEVRGSFLDKSEVTDRVLSVVKNFQKVDPSKVTPKANFQNDLGLDSLDSVEVVMALEEEFGFEIPDNEADKIQSIDLAVDFIASHPQAK | binds | binds | no binding
binds | ACP1, Gal4 activation domain fusion (protein, UniProt P53665 1-122) MALRNAILRHLRVPVQTLGLNQSKIGFLGTIRSFSSHDDHLSREAVVDRVLDVVKSFPKVDPSKVTPEVHFQNDLGLDSLDTVEIVMAIEEEFKLEIPDKEADKIDSCSLAIEYVYNHPMSS |  | binds | no binding
